Test results taken from publication PMC7558535, “In Vitro Metabolism of DWP16001, a Novel Sodium-Glucose Cotransporter 2 Inhibitor, in Human and Animal Hepatocytes” (Pharmaceutics, 2020).

Substrate: OC[C@H]1O[C@@H](c2cc(Cc3ccc(C4CC4)cc3)c(Cl)c3c2CCO3)[C@H](O)[C@@H](O)[C@@H]1O
Experiment: Enzyme kinetics of metabolite formation in cDNA-expressed CYP2C19 supersomes
Assay type: in vitro ADME, human
Details: other: CYP2C19 supersomes, DWP16001 1–200 μM, NADPH, 37.0 °C
Method: To calculate the enzyme kinetic parameters for the M1 and M2 formation from DWP16001, DWP16001 (final concentrations, 1–200 μM) was incubated with NADPH-generating system, pooled human liver microsomes (0.25 mg/mL), or human cDNA-expressed CYP3A4 or CYP2C19 supersomes (10 pmol) at 37 °C for 30 min in triplicate. Reactions were stopped by addition of 400 μL of ice-cold ketoconazole (200 ng/mL) in acetonitrile. Following vortex-mixing and centrifugation (15,000× g, 8 min, 4 °C), 75 μL aliquots of the supernatant were diluted with 75 µL of 30% acetonitrile; 5 μL aliquots were injected into an LC−MS/MS system.
Apparent kinetic parameters (Km, Vmax and n) for the formation of M1, M2, and M3 from DWP16001 by human liver microsomes, CYP3A4, or CYP2C19 were calculated as follows: the unweighted formation rates of M1, M2, and M3 over a range of DWP16001 concentrations were fitted to the Hill equation model [V = Vmax × S^n/(Km^n + S^n)] or the single enzyme model [V = Vmax × S/(Km + S)] using Enzyme Kinetics software (version 1.1 SPSS Inc., Chicago, IL, USA). In the above equations, V means the reaction velocity of the formation of M1, M2, and M3 at given concentration [S] of DWP16001, Vmax means the maximum reaction velocity, n means the Hill constant, and Km means the DWP16001 concentration at which the reaction velocity is 50% of Vmax.

B1: CYP2C19 (Homo sapiens) (protein)
chain: MDPFVVLVLCLSCLLLLSIWRQSSGRGKLPPGPTPLPVIGNILQIDIKDVSKSLTNLSKIYGPVFTLYFGLERMVVLHGYEVVKEALIDLGEEFSGRGHFPLAERANRGFGIVFSNGKRWKEIRRFSLMTLRNFGMGKRSIEDRVQEEARCLVEELRKTKASPCDPTFILGCAPCNVICSIIFQKRFDYKDQQFLNLMEKLNENIRIVSTPWIQICNNFPTIIDYFPGTHNKLLKNLAFMESDILEKVKEHQESMDINNPRDFIDCFLIKMEKEKQNQQSEFTIENLVITAADLLGAGTETTSTTLRYALLLLLKHPEVTAKVQEEIERVIGRNRSPCMQDRGHMPYTDAVVHEVQRYIDLIPTSLPHAVTCDVKFRNYLIPKGTTILTSLTSVLHDNKEFPNPEMFDPRHFLDEGGNFKKSNYFMPFSAGKRICVGEGLARMELFLFLTFILQNFNLKSLIDPKDLDTTPVVNGFASVPPFYQLCFIPV
notes: purchased Corning Life Sciences
Protein B1 has a Km (M1 formation) of 156.4 µM and a Km (M2 formation) of 35.4 µM.

Some values that stand alone complete this part of the results.
